From patent US20220041702A1 (Innovent, published 2022) come the findings set out here.

The target in experiment [1] is T1, human PD-L1 expressed on the surface of cells (CHO cells overexpressing human PD-L1) (human, UniProt Q9NZQ7).
T1 construct: whole, on cells; also called CHO-PD-L1 cells; CHO cells overexpressing PD-L1
Put plainly: FACS cell-bridging assay: antibody titrated on stained CHO-PD-L1 cells, washed, then stained CHO-OX40 cells added; readout is % double positive (cross-linked) cells, which needs binding to both PD-L1 and OX40.

Experiment [2] concerns the target T2, human OX40-his (human, UniProt P43489 29-216).
T2 construct: Bought soluble protein
T2 sequence (looked up): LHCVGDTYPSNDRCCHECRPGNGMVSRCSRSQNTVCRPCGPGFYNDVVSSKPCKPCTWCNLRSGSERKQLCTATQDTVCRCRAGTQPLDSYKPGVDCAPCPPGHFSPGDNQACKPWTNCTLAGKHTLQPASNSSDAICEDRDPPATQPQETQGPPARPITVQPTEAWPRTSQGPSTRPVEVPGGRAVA
Put plainly: ForteBio Octet BLI, antibody on AHC tip, human OX40-His 100 nM in solution, monovalent. Here is the method: (§1) A ForteBio affinity assay was performed according to the method reported in the literature (Estep, P, et al., High throughput solution Based measurement of antibody-antigen affinity and epitope binning MAbs, 2013, 5(2): p. 270-278). Briefly, the AHC sensor (Pall, Catalog No.: 1506091) was immersed in a SD buffer (PBS 1×, BSA 0.1%, Tween 20 0.05%) and equilibrated at room temperature, half an hour before the experiment. […] The anti-human IgG Fc biosensor AHC was immersed in each well containing the antibody solution, and immersed at room temperature for 600 s to load the samples. The sensor was then washed in the SD buffer until it returned to the baseline, and then immersed in a well containing 100 μL of the antigen solution to monitor the binding of the antibody to the antigen. The sensor was then transferred to a well containing 100 μL of the SD buffer to monitor the antibody dissociation. The rotation speed was 400 rpm and the temperature was 30° C. The background-corrected association and dissociation curves were fitted by the Octet analysis software (ForteBio) to generate the binding rate constant (kₒₙ) and dissociation rate constant (kdis), which are then used to calculate the equilibrium dissociation constant (KD).

Experiment [3] addresses T1, human PD-L1 expressed on the surface of …. Put plainly: FACS on CHO-PD-L1 cells, PE anti-human Fc.
Experiment [4] deals with T3, human PD-L1-his (human, UniProt Q9NZQ7 partial chain).
T3 construct: Bought soluble protein
Put plainly: ForteBio Octet BLI, antibody on AHC tip, human PD-L1-His 100 nM in solution, monovalent. Here is the method: as §1
On the technique in general: Biolayer interferometry detects binding as a change in optical thickness at a sensor tip.

In experiment [5] the target is T4, human OX40 expressed on the surface of cells (CHO cells overexpressing human OX40) (human, UniProt P43489 29-277).
T4 construct: whole, on cells; also called CHO-OX40 cells; CHO cells overexpressing OX40
T4 sequence (looked up): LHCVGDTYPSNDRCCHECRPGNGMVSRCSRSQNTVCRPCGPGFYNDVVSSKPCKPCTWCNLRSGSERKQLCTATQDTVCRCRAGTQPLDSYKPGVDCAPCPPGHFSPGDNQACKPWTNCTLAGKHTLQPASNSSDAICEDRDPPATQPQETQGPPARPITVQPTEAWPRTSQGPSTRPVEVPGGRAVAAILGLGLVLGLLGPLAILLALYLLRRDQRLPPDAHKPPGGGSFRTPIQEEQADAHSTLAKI
Put plainly: FACS on CHO-OX40 cells, PE anti-human Fc.

The target of experiment [6] is T5, human VEGF165 (human, UniProt P15692-4 27-191).
T5 construct: Bought protein
T5 sequence (looked up): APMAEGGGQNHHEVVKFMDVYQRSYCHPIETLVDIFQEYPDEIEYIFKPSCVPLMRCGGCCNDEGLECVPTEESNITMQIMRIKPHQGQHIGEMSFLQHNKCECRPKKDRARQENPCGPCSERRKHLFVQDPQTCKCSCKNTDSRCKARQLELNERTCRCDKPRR
Put plainly: ForteBio Octet BLI, antibody on AHC tip, human VEGF165 50 nM in solution. Here is the method:
as §1

Experiment [7] deals with T6, GITR expressed on cell surface (CHO cells overexpressing GITR) (Homo sapiens (Human), UniProt Q9Y5U5 26-241).
T6 construct: also called GITR on cell surface
T6 sequence: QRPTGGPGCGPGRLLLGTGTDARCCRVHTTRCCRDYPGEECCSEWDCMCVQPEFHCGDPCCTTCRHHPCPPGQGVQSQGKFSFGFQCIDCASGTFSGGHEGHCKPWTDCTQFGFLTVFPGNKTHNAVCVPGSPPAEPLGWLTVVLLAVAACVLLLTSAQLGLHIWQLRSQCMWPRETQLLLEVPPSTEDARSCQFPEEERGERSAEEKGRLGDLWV
Put plainly: FACS on CHO cells overexpressing GITR.

The target in experiment [8] is T7, human GITR-His (human, UniProt Q9Y5U5 26-161).
T7 construct: Bought soluble protein; also called GIR-H5228-1MG
T7 sequence (looked up): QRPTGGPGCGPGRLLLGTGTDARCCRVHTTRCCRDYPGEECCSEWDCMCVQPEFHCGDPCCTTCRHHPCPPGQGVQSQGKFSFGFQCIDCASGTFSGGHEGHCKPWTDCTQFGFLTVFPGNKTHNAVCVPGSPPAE
Description: ForteBio Octet BLI, antibody on AHC tip, human GITR-His 50 nM in solution, monovalent. Here is the method: as §1

B1: anti-OX40/PD-L1 bispecific antibody Bi-119-112LC (bispecific antibody)
light: DIQMTQSPSSLSASVGDRVTITCQASQDISNYLNWYQQKPGKAPKLLIYDASNLETGVPSRFSGSGSGTDFTFTISSLQPEDIATYYCQQSDHYPTFGGGTKVEIKRTVAAPSVFIFPPSDEQLKSGTASVVCLLNNFYPREAKVQWKVDNALQSGNSQESVTEQDSKDSTYSLSSTLTLSKADYEKHKVYACEVTHQGLSSPVTKSFNRGEC
heavy: QVQLVESGGGVVQPGRSLRLSCAASGFTFSSYGMHWVRQAPGKGLEWVAVISYDGSNKYYADSVKGRFTISRDNSKNTLYLQMNSLRAEDTAVYYCARGRPWYSETGTSAFDIWGQGTMVTVSSASTKGPSVFPLAPSSKSTSGGTAALGCLVKDYFPEPVTVSWNSGALTSGVHTFPAVLQSSGLYSLSSVVTVPSSSLGTQTYICNVNHKPSNTKVDKKAEPKSCDKQVQLQESGGGLVQPGGSLRLSCAASAYTISRNSMGWFRQAPGKGLEGVAAIESDGSTSYSDSVKGRFTISLDNSKNTLYLEMNSLRAEDTAVYYCAAPKVGLGPRTALGHLAFMTLPALNYWGQGTLVTVSS[… human IgG1 Fc …]
notes: the VHH stands between CH1 and Fc
The term EC50 (read off the curve) denotes the concentration needed to bring the measured effect to its halfway point. Broadly, the Kd is the constant that tells how readily two partners part at equilibrium. A high value points to weaker binding. The koff is the rate constant with which the complex falls apart. In general, kon refers to a measure of how fast the partners come together. A low value points to slower complex formation. One may read the EC50 as the concentration at which the effect is half-maximal. Read a high EC50 as weaker potency. With B1, in experiment [1], the “EC50 (read off the curve)” value was roughly 1 nM. In addition, the Kd in experiment [2] stood at 60.7 nM; in experiment [4], 13.1 nM. The koff came to 0.0133 s⁻¹ in experiment [2] and 0.00423 s⁻¹ in experiment [4]. Moreover, the kon in experiment [2] was determined as 220000 M⁻¹ s⁻¹; in experiment [4], 322000 M⁻¹ s⁻¹. Further, the EC50 in experiment [3] came out at 2.65 nM; in experiment [5] it was 3.19 nM.

B2: anti-VEGF/GITR bispecific antibody Bi-2-50 (bispecific antibody)
light: DIQMTQSPSSLSASVGDRVTITCSASQDISNYLNWYQQKPGKAPKVLIYFTSSLHSGVPSRFSGSGSGTDFTLTISSLQPEDFATYYCQQYSTVPWTFGQGTKVEIKRTVAAPSVFIFPPSDEQLKSGTASVVCLLNNFYPREAKVQWKVDNALQSGNSQESVTEQDSKDSTYSLSSTLTLSKADYEKHKVYACEVTHQGLSSPVTKSFNRGEC
heavy: EVQLVESGGGLVQPGGSLRLSCAASGYTFTNYGMNWVRQAPGKGLEWVGWINTYTGEPTYAADFKRRFTFSLDTSKSTAYLQMNSLRAEDTAVYYCAKYPHYYGSSHWYFDVWGQGTLVTVSSASTKGPSVFPLAPSSKSTSGGTAALGCLVKDYFPEPVTVSWNSGALTSGVHTFPAVLQSSGLYSLSSVVTVPSSSLGTQTYICNVNHKPSNTKVDKKVEPKSCDKGGGGSGGGGSQVQLQESGGGLVQPGGSLRLSCAASGFAFGSSHMSWVRRAPGKGLEWVSTIHSGGGFGDYANSVQGRFTISRDVAKNTLYLQMNSLKPEDTAIYYCALATDWRKPPGQGTQVTVSS[… human IgG1 Fc …]
Turning to B2, in experiment [6], binding was characterised by a dissociation constant (Kd) of 1.08 nM, the koff stood at 0.000135 s⁻¹ and the kon is 124000 M⁻¹ s⁻¹. For the same molecule, the EC50 in experiment [7] is 2.99 nM. In experiment [8], this molecule returned a Kd of 2.39 nM, a koff of 0.000629 s⁻¹ and a kon of 263000 M⁻¹ s⁻¹.

B3: anti-VEGF/GITR bispecific antibody Bi-2-51 (bispecific antibody)
light: DIQMTQSPSSLSASVGDRVTITCSASQDISNYLNWYQQKPGKAPKVLIYFTSSLHSGVPSRFSGSGSGTDFTLTISSLQPEDFATYYCQQYSTVPWTFGQGTKVEIKRTVAAPSVFIFPPSDEQLKSGTASVVCLLNNFYPREAKVQWKVDNALQSGNSQESVTEQDSKDSTYSLSSTLTLSKADYEKHKVYACEVTHQGLSSPVTKSFNRGEC
heavy: EVQLVESGGGLVQPGGSLRLSCAASGYTFTNYGMNWVRQAPGKGLEWVGWINTYTGEPTYAADFKRRFTFSLDTSKSTAYLQMNSLRAEDTAVYYCAKYPHYYGSSHWYFDVWGQGTLVTVSSASTKGPSVFPLAPSSKSTSGGTAALGCLVKDYFPEPVTVSWNSGALTSGVHTFPAVLQSSGLYSLSSVVTVPSSSLGTQTYICNVNHKPSNTKVDKKVEPKSCDKQVQLQESGGGLVQPGGSLRLSCAASGFAFGSSHMSWVRRAPGKGLEWVSTIHSGGGFGDYANSVQGRFTISRDVAKNTLYLQMNSLKPEDTAIYYCALATDWRKPPGQGTQVTVSS[… human IgG1 Fc …]
Turning to B3, in experiment [6], binding was characterised by a dissociation constant (Kd) of 0.77 nM, the koff was found to be 0.000115 s⁻¹ and the kon was found to be 149000 M⁻¹ s⁻¹. In experiment [7], the response was half-maximal at 3.17 nM (EC50). In experiment [8], this molecule returned a Kd of 2.31 nM, a koff of 0.000585 s⁻¹ and a kon of 254000 M⁻¹ s⁻¹.
